Hit rate of the full screen: of about 310,000 compounds, about 14,000 (4.5%) showed an effect of 50% or more. The effect is printed as a negative number. This is one part of the list.
molecular target: human ether-à-go-go-related gene (hERG) potassium channel (human, UniProt Q12809); assay: primary screen, population patch clamp on CHO cells stably expressing hERG
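Note: peak tail current of the secondary pulse compared with the same well before compound.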

human ether-à-go-go-related gene (hERG) potassium channel, sequence (Q12809 whole entry, looked up): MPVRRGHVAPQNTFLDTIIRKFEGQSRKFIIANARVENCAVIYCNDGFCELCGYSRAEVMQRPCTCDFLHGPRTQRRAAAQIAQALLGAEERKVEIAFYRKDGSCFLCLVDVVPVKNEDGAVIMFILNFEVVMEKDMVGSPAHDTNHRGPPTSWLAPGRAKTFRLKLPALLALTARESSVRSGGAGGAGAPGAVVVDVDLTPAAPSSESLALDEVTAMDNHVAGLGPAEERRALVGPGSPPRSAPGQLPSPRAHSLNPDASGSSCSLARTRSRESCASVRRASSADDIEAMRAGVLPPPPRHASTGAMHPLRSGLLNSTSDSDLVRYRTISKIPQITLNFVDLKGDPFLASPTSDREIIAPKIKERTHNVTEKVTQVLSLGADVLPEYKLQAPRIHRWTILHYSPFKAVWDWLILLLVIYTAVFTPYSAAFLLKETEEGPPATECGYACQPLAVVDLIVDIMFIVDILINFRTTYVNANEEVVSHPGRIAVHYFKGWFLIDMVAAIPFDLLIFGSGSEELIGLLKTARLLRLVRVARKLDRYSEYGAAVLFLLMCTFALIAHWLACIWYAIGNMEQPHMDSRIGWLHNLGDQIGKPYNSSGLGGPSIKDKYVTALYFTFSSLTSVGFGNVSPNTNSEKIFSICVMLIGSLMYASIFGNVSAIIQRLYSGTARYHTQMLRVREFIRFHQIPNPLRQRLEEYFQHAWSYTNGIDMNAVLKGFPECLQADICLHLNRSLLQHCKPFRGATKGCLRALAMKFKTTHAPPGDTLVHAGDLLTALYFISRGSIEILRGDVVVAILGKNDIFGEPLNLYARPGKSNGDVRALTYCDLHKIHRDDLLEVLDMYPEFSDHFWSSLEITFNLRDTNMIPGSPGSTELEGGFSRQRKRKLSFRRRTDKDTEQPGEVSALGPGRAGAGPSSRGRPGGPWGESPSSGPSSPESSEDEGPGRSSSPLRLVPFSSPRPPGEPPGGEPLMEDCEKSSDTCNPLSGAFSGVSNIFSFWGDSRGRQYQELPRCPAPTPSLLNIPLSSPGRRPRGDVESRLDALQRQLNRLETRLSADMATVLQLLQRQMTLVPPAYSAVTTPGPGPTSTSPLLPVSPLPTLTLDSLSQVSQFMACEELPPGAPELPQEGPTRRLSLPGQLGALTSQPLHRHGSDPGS

| Compound | hERG current change (%, negative = inhibition) at 10uM [%] |
| --- | --- |
| Nc1nnc(-c2ccc(Cl)cc2)s1 | 15 |
| N#CCCN(C(=O)COC(=O)c1cccc(S(=O)(=O)Nc2ccc([N+](=O)[O-])cc2)c1)c1ccccc1 | 7.52 |
| O=C(c1cccs1)N1CCC(C(=O)N2CCN(Cc3ccc4c(c3)OCO4)CC2)CC1 | -59.9 |
| Cc1ccc(S(=O)(=O)N2CCN(C(=O)c3c(C)nn(-c4ccccc4)c3Cl)CC2)cc1 | -28.8 |
| CCN(c1ccccc1)S(=O)(=O)c1ccc(OC)c(NC(=O)Cc2ccccc2OC)c1 | -7.96 |
| COc1ccc(S(=O)(=O)N2CCN(CC(=O)NCC3(N4CCOCC4)CCCCC3)CC2)cc1 | -25.3 |
| COc1ccc(OC)c2[nH]c(=O)c(CCNC(=O)C3CCCCC3)cc12 | -18.4 |
| O=C(N=C1SC2CS(=O)(=O)CC2N1CCc1ccccc1)C1CC1 (stereo not shown) | 2.56 |
| CCN1CCCC(OC(=O)c2cc(-c3ccc(C)cc3)nc3ccccc23)C1.Cl (stereo not shown) | -8.97 |
| Cc1cccc(C)c1NC(=O)Cn1cnc2c(=O)n(C)c(=O)n(C)c21 | 9.06 |
| O=C(c1cccc(C(F)(F)F)c1)N(c1ccccn1)C1CCCCC1 | 2.35 |
| O=C(OCC1OC(n2ncc(=O)[nH]c2=O)C(OC(=O)c2ccccc2)C1OC(=O)c1ccccc1)c1ccccc1 (stereo not shown) | 14.6 |
| Cc1nc2ccc(NC(=O)c3cc(S(=O)(=O)N4CCOCC4)ccc3C)cc2s1 | -0.181 |
| COc1ccc2cc(C(=O)CS(=O)(=O)c3ccccc3)c(=O)oc2c1 | 14.2 |
| O=S(=O)(c1cccs1)N1CCCc2ccccc21 | -12.9 |
| O=C(O)/C(=C\c1ccc(C(F)(F)F)cc1)c1ccc(S(=O)(=O)N2CCCC2)s1 | 14.8 |
| O=C(NCc1cccnc1)c1cc2nc(-c3ccc4c(c3)OCO4)cc(C(F)(F)F)n2n1 | 3.07 |
| CCc1cc2cc3c(cc2nc1SCC(=O)N1CCN(C(=O)c2ccco2)CC1)OCO3 | -28.7 |
| COc1ccc(-c2c3c(=O)n(C)c(=O)n(C)c3cn2Cc2ccccn2)cc1 | 1.24 |
| CN1CCN(C(=O)c2cc(=O)c3cc(Cl)cc(Cl)c3o2)CC1 | -31.3 |
| COc1cc2nc(/C=C/c3ccc(N(C)C)cc3)sc2cc1SC | 5.81 |
| COC(=O)C1CCN(c2c([N+](=O)[O-])cc(C(F)(F)F)cc2[N+](=O)[O-])CC1 | -7.59 |

| Compound | hERG current change (%, negative = inhibition) at 10uM [%] |
| --- | --- |
| CCN(CC)C(=O)C1CCCN(C(=O)c2cc(COc3cccc(OC)c3)on2)C1 (stereo not shown) | -35.9 |
| O=C(Nc1ccccc1C(=O)Nc1nncs1)c1ccccc1 | 22.2 |
| Nc1ncnc2nc(SCCN3CCCCC3)[nH]c12 | -0.28 |
| O=[N+]([O-])c1ccc(N/N=C\c2ccccc2OCc2ccccc2)cc1 | 13.2 |
| CCOc1cc(/C=C2/C(=N)N3OC(C)=CC3=NC2=O)ccc1OC(=O)c1ccco1 | -1.82 |
| COC(=O)COc1ccc(S(=O)(=O)NCc2cccnc2)cc1 | 0.304 |
| Cc1ccc2nc(Nc3nc(CSc4nnc(C)s4)cc(=O)[nH]3)nc(C)c2c1 | -37.1 |
| COc1ccc(CCNC(=O)CSc2nn3c(=O)c(C)nnc3s2)cc1OC | 6.31 |
| Cn1cnnc1SCc1ccc(-c2ccc(Br)cc2)o1 | 3.82 |
| CCOc1ccc(S(=O)(=O)NCCC2=CCCCC2)c2ccccc12 | -2.82 |
| O=C(Cn1nnc(-c2ccccc2)n1)NNC(=O)c1ccccc1 | -14.7 |
| Cc1ccc(NC(=O)C2CCCN(S(=O)(=O)c3ccc4c(c3)oc(=O)n4C)C2)nc1 (stereo not shown) | -29.6 |
| O=C(Nc1sccc1C(=O)N1CCOCC1)c1cccnc1 | -0.956 |
| CS(=O)(=O)c1ccccc1-c1nnc(NC(=O)CCS(=O)(=O)c2ccc(Cl)cc2)o1 | -10.1 |
| CCOC(=O)c1sc2nc(N3CCCC3)c3c(c2c1N)CC(C)(C)OC3 | 10.4 |
| Cc1cc(Br)c(S(=O)(=O)NCCN2CCOCC2)cc1C | 7.8 |
| O=S(=O)(c1cccc2nsnc12)N1CCc2ccccc2C1 | -34.8 |
| CC(C)Cn1c(SCC(=O)N(C)C2CCS(=O)(=O)C2)nc2cc(Cl)ccc2c1=O (stereo not shown) | -31.5 |
| CCOc1ccccc1Nc1nnc(SCC(=O)N2CCCC2)s1 | -2.79 |
| Cc1c(OC(C)C(=O)NCCCn2ccnc2)ccc2c3c(c(=O)oc12)CCC3 (stereo not shown) | -0.297 |
| CCc1ccc(NC(=O)Cn2ncn3c(cc4ccccc43)c2=O)cc1 | 4.26 |

Source: paper PMC4336329 (PLoS ONE, 2015)
